No constants are given. Whether binding was seen depends on the method and setting. Binding seen in cells or lysates may run through a third protein. Some entries that bind do so weakly or less than the wild type. Where a sequence is shown, tags or fusion partners need not be part of it.

The chains behind the UniProt entries cited, without tags or fusion partners.
UniProt O95166: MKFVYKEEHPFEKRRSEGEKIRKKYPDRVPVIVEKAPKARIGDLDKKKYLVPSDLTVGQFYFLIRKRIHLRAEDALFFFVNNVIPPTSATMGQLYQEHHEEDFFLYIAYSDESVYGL

These results are taken from PMC7396842.

In one experiment the target is T1, GST-CALCOCO1 (WT) (UniProt Q9P1Z2).
T1 sequence: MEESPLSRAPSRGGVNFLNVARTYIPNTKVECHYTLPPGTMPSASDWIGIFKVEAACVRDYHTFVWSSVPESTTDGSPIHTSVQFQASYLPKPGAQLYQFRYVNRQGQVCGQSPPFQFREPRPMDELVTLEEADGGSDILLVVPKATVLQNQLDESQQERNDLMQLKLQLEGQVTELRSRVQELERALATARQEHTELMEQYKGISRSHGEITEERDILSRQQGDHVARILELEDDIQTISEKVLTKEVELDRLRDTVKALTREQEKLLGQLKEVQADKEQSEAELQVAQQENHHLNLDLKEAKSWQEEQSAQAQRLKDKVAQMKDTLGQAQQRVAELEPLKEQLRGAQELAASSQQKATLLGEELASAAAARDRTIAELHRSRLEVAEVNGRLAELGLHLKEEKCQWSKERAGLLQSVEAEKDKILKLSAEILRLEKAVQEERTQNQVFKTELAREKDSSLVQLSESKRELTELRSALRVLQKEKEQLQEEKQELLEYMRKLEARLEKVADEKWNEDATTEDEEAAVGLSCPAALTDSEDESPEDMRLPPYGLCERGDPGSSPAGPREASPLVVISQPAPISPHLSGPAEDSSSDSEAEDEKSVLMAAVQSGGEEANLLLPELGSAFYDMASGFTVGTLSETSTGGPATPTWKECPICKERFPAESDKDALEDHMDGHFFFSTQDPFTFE
Description: pull-down; GST-tagged CALCOCO1 constructs on beads; HEK293 cell extracts; endogenous proteins detected by blot; only the target purified.

The target in experiment [1] is T2, GST-CALCOCO1 ΔLIR + Δ623–691 (UniProt Q9P1Z2).
T2 sequence: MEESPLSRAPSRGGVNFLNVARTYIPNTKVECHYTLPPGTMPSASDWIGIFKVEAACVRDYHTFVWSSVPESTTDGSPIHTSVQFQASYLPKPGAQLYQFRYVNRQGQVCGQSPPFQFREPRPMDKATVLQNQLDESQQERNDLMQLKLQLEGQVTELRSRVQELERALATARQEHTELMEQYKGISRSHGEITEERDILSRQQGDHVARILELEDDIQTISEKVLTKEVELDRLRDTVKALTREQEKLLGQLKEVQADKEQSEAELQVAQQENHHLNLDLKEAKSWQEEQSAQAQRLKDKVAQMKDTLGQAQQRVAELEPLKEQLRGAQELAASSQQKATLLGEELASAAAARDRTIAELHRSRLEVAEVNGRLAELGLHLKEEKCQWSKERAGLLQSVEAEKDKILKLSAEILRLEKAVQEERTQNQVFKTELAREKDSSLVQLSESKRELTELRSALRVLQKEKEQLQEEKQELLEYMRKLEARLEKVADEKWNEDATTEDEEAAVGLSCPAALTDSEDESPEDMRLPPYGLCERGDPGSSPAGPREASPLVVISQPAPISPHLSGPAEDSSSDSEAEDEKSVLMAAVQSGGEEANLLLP
Described as above.

With “endogenous GABARAP of HEK293 cell extracts (from UniProt O95166 1-117)”, the figures for the binding entry (in the experiment with GST-CALCOCO1 (WT); in experiment [1]) were “binds” and “no binding”, respectively.
